Consider 54 compounds from PubChem BioAssay (NCI).

This assay relates to NCI-H322M lung. Kind of assay: growth of human tumour cells (NCI), 48 h.

SMILES strings stand for the structures.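 Protocol summary: plate cells (96-well), add compound at 5 concentrations, incubate 48 h, interpolate endpoints linearly. GI50 marks 50% less growth. Definition used: TGI = concentration required for complete inhibition of growth.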 A value given as a limit tells only on which side of the number the result lay.

`NCCNCc1c2ccccc2c(CNCCN)c2ccccc12` came in with a TGI of 50.8 µM. Consider `COc1ccc(C2CC3(c4ccccc4)ON=C(c4ccccc4)N3c3ccccc3S2)cc1` (centres undefined), for which the TGI is more than 100 µM. Take `CC(C)(C)c1cc2c(O)c(c1)Cc1cc(C(C)(C)C)cc(c1O)Cc1cc(C(C)(C)C)cc(c1O)Cc1cc(C(C)(C)C)cc(c1O)Cc1cc(C(C)(C)C)cc(c1O)Cc1cc(C(C)(C)C)cc(c1O)Cc1cc(C(C)(C)C)cc(c1O)Cc1cc(C(C)(C)C)cc(c1O)C2`: the TGI was more than 50 µM. In the case of `CCCCCCCCCCCCOC1C(CNC(=O)C2OC3OC(C)(C)OC3C2NC(=O)Nc2ccc(CC(=O)NC(Cc3ccccc3)C(=O)O)cc2)OC2OC(C)(C)OC21` (centres undefined), the GI50 is more than 25 µM and the TGI was more than 25 µM.

With `COc1ccc(C2C=C(c3ccc4c(c3)OCO4)Oc3c2c(=O)oc2ccccc32)cc1OC` (centres undefined), the TGI was more than 100 µM. `O=C(/C(=C\c1ccc(Cl)cc1)c1ccccc1)c1ccccc1` came in with a TGI of more than 100 µM. With `CN1CCN(C)C12C=CC=CC21CC1`, the TGI was more than 100 µM. On the same count and under the same terms, for `Cc1cc(C(C)(C)C)cc(CNC2CCCCC2)c1O` the value was 35.4 µM. In turn, `COC(=O)C1=C(C(=O)OC)SC2(S1)C(C(=O)OC)=C(C(=O)OC)Sc1c2ssc1=Nc1ccc(Cl)cc1` came in with a TGI of 3.14 µM. As to `O=S(=O)(/N=c1/scc(-c2ccccc2)n1-c1ccccc1)c1ccc(N2N=C3c4ccccc4CC3C2c2cccs2)cc1` (centres undefined), the GI50 is 31.4 µM and the TGI came out at 83.7 µM. In the case of `COc1cc2c(cc1OC)C1Cc3cc(OC)c(OC)cc3C(C2)N1C`, the TGI was more than 75 µM. For the compound `COc1ccc(/C=C2\C=C(c3ccccc3)N(CCc3ccccc3)C2=O)cc1OC`, the GI50 is 8.77 µM and the TGI came out at 33.2 µM. On to `CC(C)(C)c1c2c(c(C(C)(C)C)c3c1OCN(Cc1ccccc1)C3)OCN(Cc1ccccc1)C2`, for which the TGI amounted to 50 µM. Same read-out and setting: for `C/C(=N\Nc1nc2cccnc2s1)c1ccccn1` the value was more than 100 µM; for `O=C(O)C12CCCCC1CCCC2` (centres undefined), more than 100 µM. Consider `COC(=O)[C@H](CC(C)C)Nc1c(O)c2c(c(O)c1Cl)C(=O)C=CC2=O`, for which the TGI is more than 10 µM. For `COC(=O)CCC(C)C1CCC2C3C(C[C@H](OC(C)=O)[C@]12C)[C@@]1(C)CCC2(C[C@H]1C[C@H]3OC(C)=O)OOC1(CC[C@]3(C)C4C[C@H](OC(C)=O)[C@]5(C)C(C(C)CCC(=O)OC)CCC5C4[C@H](OC(C)=O)C[C@@H]3C1)OO2` (some centres undefined), the TGI is more than 100 µM.

With `O=C(O)CC(Sc1ccccc1)c1ccccc1` (centres undefined), the TGI is more than 100 µM. For the compound `CC(=O)Oc1ccc(/C(=C(\C)c2ccc(Cl)cc2)c2ccc(OCCN3CCCCC3)cc2)cc1`, the GI50 is 2.83 µM and the TGI turned out to be 8.87 µM. Compound `CSc1ncc2c(n1)sc1c(=O)n(-c3ccccc3)cnc12` registered a TGI of more than 100 µM. On the same count and under the same terms, for `CC1OC(OC2C(OC3CCC4(C)C(CCC5(C)C4CC=C4C6CC(C)(C)CCC6(C(=O)O)CCC45C)C3(C)CO)OCC(O)C2O)C(O)C(O)C1O` (centres undefined) the value was 37.3 µM; for `Cc1ccc2c(c1)S(=O)(=O)c1ccc3ccccc3c1N2`, more than 100 µM. Turning to `CCCCCCCCn1ccc2cc(NC(=O)Cn3cc(CN4CCCCC4)nn3)ccc21`, the GI50 was 1.63 µM and the TGI is 3.2 µM. As to `O=C(O)c1ccc(C2SCc3nc4ccccc4n32)cc1` (centres undefined), the TGI was more than 100 µM.

In the case of `CC1(C)[C@@H](OC(=O)CCC(=O)O)CC[C@]2(C)[C@H]3C(=O)C=C4[C@@H]5C[C@@](C)(C(=O)O)CC[C@]5(C)CC[C@@]4(C)[C@]3(C)CC[C@@H]12`, the GI50 is 56 µM and the TGI amounted to 89.1 µM.

`Brc1ccc2c(c1)-c1nc3nc4c(cc3cc1CC2)CCc1ccc(Br)cc1-4` displayed a TGI of more than 100 µM. The same measure, in the same setting: for `C=C[C@]1(C)CCC2=C(CCC3C2(C)CCC[C@@]3(C)COC(C)=O)C1` (some centres undefined) the value was 68.8 µM; for `O=C(O)CCCc1ccc2ccccc2c1`, more than 100 µM. As for `CN1CCN(c2ccc3nc(-c4ccc5nc(-c6ccc(O)cc6)[nH]c5c4)[nH]c3c2)CC1`, the GI50 is 87 µM and the TGI came to 597 µM. In the case of `Cc1ccc(Cl)c(Nc2ccccc2C(=O)O)c1Cl`, the GI50 was 36.9 µM and the TGI is more than 100 µM. As to `O=C1C=CC(=O)c2c1ccc1c3ccccc3n(Cc3cccc([N+](=O)[O-])c3)c21`, the TGI is more than 100 µM. For `O=C1c2cc([N+](=O)[O-])ccc2-c2ccc3c4ccc5c6c(ccc(c7ccc1c2c73)c64)C(=O)c1cc([N+](=O)[O-])ccc1-5`, the TGI was more than 100 µM. Compound `COc1cc2c(cc1OCCCCOc1cc3c(cc1OC)C(=O)N1CCC[C@H]1C(=O)N3)N=C[C@@H]1CCCN1C2=O` displayed a TGI of 43.2 µM. On the same count and under the same terms, the same measure for `OCCOc1ccccc2cccc1-2`: more than 100 µM; for `COC(=O)C(Cc1nc2ccccc2nc1C)/C(=N\NC(N)=O)C(=O)Nc1cccc([N+](=O)[O-])c1` (centres undefined): more than 100 µM; for `CCNC(=O)O/N=C1\CCC2[C@@H]3CC=C4C[C@@H](OC5CCCCO5)CC[C@]4(C)C3CC[C@]12C` (some centres undefined): 19.9 µM. As for `C[C@@H](Oc1ccc(C(=O)NS(=O)(=O)C(C)(C)C)cc1C(F)(F)F)c1ccc(Oc2ccccc2)cn1`, the GI50 was 4.24 µM and the TGI stood at 16.3 µM. Take `Cn1c(=O)sc2cc(C(=S)N3CCC(Cc4ccccc4)CC3)ccc21`: the TGI was more than 100 µM. As to `Cc1ccc(NC(=O)c2sc3nc4c(cc3c2N)C(=O)CCC4)cc1C`, the GI50 was 0.975 µM and the TGI is more than 100 µM.

`c1ccc2c(c1)NC1(N3CCCCC3)CCCCC21` (centres undefined): the TGI was more than 100 µM.

`COC1OC(COC(=O)c2cc(O)c(O)c(O)c2)C(OC(=O)c2cc(O)c(O)c(O)c2)C(OC(=O)c2cc(O)c(O)c(O)c2)C1OC(=O)c1cc(O)c(O)c(O)c1` (centres undefined) came in with a TGI of more than 100 µM.

For `COc1ccc(C2=NN(C(=O)c3cc(OC)c(OC)c(OC)c3)C(c3ccc(N(C)C)cc3)C2)cc1` (centres undefined), the GI50 was 9.2 µM and the TGI is more than 100 µM. On the same counts, the results for `CN(C)c1ccc(/C=C/C2=[N+](C)c3ccccc3C2(C)C)cc1` are 2.14 µM and 20.7 µM. The compound `O=C(CNC(c1ccccc1)(c1ccccc1)c1ccccc1)NC1CCCCC1NC(=O)CNC(c1ccccc1)(c1ccccc1)c1ccccc1` (centres undefined) displayed a TGI of more than 100 µM. Regarding `COc1cc(-c2cc(-c3cc(OC)c(OC)c(OC)c3)nc3nc(N)[nH]c(=O)c23)ccc1Oc1ccnc2cc(Cl)ccc12`, the GI50 was 3.33 µM and the TGI came to 34.1 µM. In the case of `COc1ccc2[nH]c3c(C)c4ccnc(NCCCN(C)CCCNc5ccc6ncn7c8ccccc8c(=O)c5c67)c4c(C)c3c2c1`, the TGI was found to be 6.18 µM. Same read-out and setting: the same measure for `O=c1[nH]c(=O)n(C2OC(CO)C(O)C2O)cc1Oc1ccccc1` (centres undefined): more than 100 µM. In the case of `NC(N)=N/N=C/c1ccc(-c2ccc(-c3cc(Cl)cc(Cl)c3)s2)cc1`, the GI50 is 1.65 µM and the TGI is 3.14 µM. On the same counts, the results for `O=C1c2ccccc2-c2c1c1ccccc1c(=O)n2CCCNCCCCNCCCN1C(=O)c2ccccc2C2C(=O)c3ccccc3C21` (centres undefined) are 0.095 µM and 0.617 µM. Compound `CCOP(=O)(OCC)/C(C#N)=C/c1cnc[nH]1` displayed a TGI of more than 100 µM. On the same count and under the same terms, for `NN1C(=O)C(CCO)S/C1=N/N=C1/SC(CCO)C(=O)N1N` (centres undefined) the value was more than 100 µM; for `COc1cc(-c2[o+]c3cc(O)cc(O)c3cc2O)cc(O)c1O`, more than 100 µM; for `C=C(C(=C)P(=S)(c1ccccc1)c1ccccc1)P(=S)(c1ccccc1)c1ccccc1`, more than 100 µM. Still for that read-out and setting: for `O=C1C(Cl)N(c2cccc([N+](=O)[O-])c2)C1c1c[nH]c2ccccc12` (centres undefined) the value was 46.4 µM.
